Reference: ChEMBL document CHEMBL4888484, “Replenishing the malaria drug discovery pipeline: Screening and hit evaluation of the MMV Hit Generation Library 1 (HGL1) against asexual blood stage Plasmodium falciparum ,using a nano luciferase reporter read-out” (2022)
Out of some 150,000 compounds screened, about 540 (0.36%) showed an effect of 50% or more. The list shows a part of the results.

These compounds were tested on Plasmodium falciparum (assay: Primary screen in NF54 nanoGlo assay, in single point, at 2uM, 72h; a lower Z score goes with more inhibition). Conditions: timepoint 72 hour.
Assay type: functional, Erythrocyte

| Compound | % Inhibition | Z score |
| --- | --- | --- |
| CCn1cc(CN2CCc3[nH]cnc3[C@@H]2c2cc3ccccc3n2C)c(C)n1 | -3% | 0.41 |
| O=C1C[C@H](NC(=O)c2cncc(Br)c2)CN1 | 2% | -0.38 |
| O=C(NCc1noc(-c2ccco2)n1)c1coc(C2CC2)n1 | 12% | -1.51 |
| CC(=O)Nc1ccc(CNC[C@H]2Cn3c(-c4ccc5c(c4)OCCO5)cnc3CO2)cc1 | 17% | -1.96 |
| CCCN(CC1CC1)C(=O)C1CCCN(c2cccc3c2C(=O)N(C(C)c2nccs2)C3=O)C1 (centres undefined) | -2% | 0.43 |
| COC[C@@H]1CN(Cc2ccc[nH]2)C[C@H]1c1nc(C2CC2)no1 | -12% | 2.01 |
| COc1cccc(-c2n[nH]cc2C(=O)NC2CCN(c3ncnc4c3CCCC4)CC2)c1 | -7% | 0.95 |
| COc1ccccc1NC(=O)N(CC(=O)N(Cc1cccn1Cc1ccc(Br)cc1)C1CCCCC1)C(C)C | -8% | 1.17 |
| COc1ccc(CNC(=O)N2CCC3(CC2)C[C@@H](Cc2nc(-c4cccnc4)no2)CCO3)cc1 | -1% | 0.07 |
| N#Cc1c(NC(=O)CCN2CCOCC2)sc2c1CCC2 | -8% | 1.17 |
| C[C@H]1CN(CCCN2CCCC2=O)CCN1c1ccc2nncn2n1 | -3% | 0.34 |
| Cc1cc(C(=O)Nc2cc(C)on2)nc(N2CCOCC2)n1 | -6% | 0.98 |
| CCC(=O)N(CC)CC(=O)Nc1nc(-c2ccccc2)cn1-c1ccc(OC)c(OC)c1 | 3% | -0.43 |
| CCC(CC)n1nc(C)cc1C(=O)N1CCOc2ccc(F)cc2C1 | 9% | -1.34 |
| COCc1nc(C2(CC3CC3)CCN(C(=O)COCc3ccccc3)CC2)no1 | 8% | -1 |
| Cc1ccc(CN(C)C(=O)c2cccc(S(=O)(=O)N3CCCC3)c2)o1 | -17% | 2.67 |
| CC(NC(=O)CC1CCCCC1)C(=O)N1CCCCC1c1nc2ccccc2o1 (centres undefined) | -15% | 1.65 |
| Cc1cc(=O)c(C(=O)N(c2ccc(C)c(F)c2)C2CCOCC2)c[nH]1 | -14% | 1.72 |
| O=C(CCc1cc2n(n1)CCN(Cc1ccc3[nH]ccc3c1)C2)NCCO | -1% | 0.19 |
| O=C(CN1C(=O)CCC1=O)N1CCCCCCC1 | 4% | -0.37 |
| COC(=O)Nc1cc(Cl)c(OC)cc1OC | 8% | -1.11 |

| Compound | % Inhibition | Z score |
| --- | --- | --- |
| O=S(=O)(Oc1cccc2ccccc12)c1cccc2cccnc12 | -10% | 1.15 |
| CCN(C(=O)c1ccccc1Cc1ccc(C)cc1)C1CCOCC1 | -13% | 1.36 |
| Cc1cc(C)c(NC(=O)Cn2c(C)cc(C)c(-c3nc(-c4ccc5c(c4)OCO5)no3)c2=O)c(C)c1 | -15% | 2.02 |
| CCn1c(=O)[nH]c(=O)c2c(C(=O)N3CCC[C@H]3c3ccc(OC)cc3)cc(C(C)C)nc21 | -8% | 1.33 |
| C[C@@]1(C(=O)NC2CCCCCCC2)Cn2nc(C3CC3)cc2C(=O)N1c1ccc(Cl)cc1 | -6% | 1.02 |
| Cc1c(C(=O)N2CCC(c3nc4ccccc4o3)CC2)oc2ccccc12 | -21% | 1.84 |
| Cc1cc(Br)cc(C(=O)N(C)CC[C@H](C)O)c1 | -6% | 0.57 |
| CCS(=O)(=O)NCCNCc1ccc(C)cc1Br | -8% | 1.39 |
| O=C(NC1CC[C@@H](O)[C@@H](O)CC1)c1nc(-c2ccccc2)ns1 (some centres undefined) | -1% | 0.22 |
| Cc1ccc2c(c1)CCCN2C(=O)c1cc(C2CC2)[nH]n1 | -6% | 0.86 |
| C=CCOc1cccc(NC(=O)[C@@H]2CN(S(C)(=O)=O)c3cc(C)ccc3O2)c1 | -14% | 1.86 |
| CCN1CCN(c2nc3ncn(CC(=O)Nc4ccc(Br)cc4)c(=O)c3s2)CC1 | -10% | 1.64 |
| CC(C)(C)c1csc(C2CCN(C(=O)c3ccco3)CC2)n1 | -8% | 1.14 |
| CCCCN(CCC(=O)Nc1nnc(-c2ccc(C(F)(F)F)cc2)s1)C(=O)C1CCCC1 | 12% | -1.2 |
| Cc1cc(OCC(=O)NCCN2CCOCC2)nc2c1c(-c1ccccc1)nn2-c1ccccc1 | -7% | 0.98 |
| COc1ccc(CC(=O)N2CCCN(c3ccc4nncn4n3)CC2)cc1OC | -11% | 1.43 |
| Cc1nn(C)c(C)c1S(=O)(=O)N1CCC(Cc2nncn2Cc2ccccc2)CC1 | -2% | 0.31 |
| O=C1NCCN(C(=O)c2ccc(O)cc2)[C@H]1Cc1ccccc1 | 10% | -1.39 |
| CC(C)CN(CCn1nc2ccccn2c1=O)c1cccc(O)c1 | -22% | 2.96 |
| Cc1nn(C)c(C)c1-c1c(-c2ccccc2)ncn1[C@@H](C)CCc1ccco1 | -9% | 1.48 |
| Cc1ccc(C)c([C@@H](NC(=O)c2cc(C(C)C)nn2C)c2cccnc2)c1 | 1% | -0.23 |

| Compound | % Inhibition | Z score |
| --- | --- | --- |
| Cc1cc(C)c(S(=O)(=O)N2CCn3c(nn(CC4CC4)c3=O)C2)c(C)c1 | -11% | 1.86 |
| O=C(c1n[nH]c2ccccc12)N1CCCn2nc(-c3ccc(Cl)cc3)cc2C1 | -16% | 2.74 |
| COc1ccc(CN2CCCC3(CCOCC3)C2)c(OC)c1 | -1% | 0.23 |
| Cn1c(C(=O)NCc2ccc(N3CCNC(=O)C3)cc2)ccc1-c1cccc(Br)c1 | 0% | 0.05 |
| CCn1c(CN2CCC[C@H](C(=O)c3cccc(Cl)c3)C2)nc2ccccc21 | -5% | 0.96 |
| CCc1cccc(OCCCNC(C)(C)C)c1 | -7% | 1 |
| CN(C)Cc1cc2n(n1)CCN(c1nccc(N3CCC[C@H](O)C3)n1)C2 | -3% | 0.53 |
| CC(C)[C@H](Cn1ccnn1)NC(=O)C(c1ccccc1)c1ccccc1 | 17% | -2.18 |
| C/C(=C\c1ccco1)CN1CCC[C@H](CNC(=O)c2ccc3c(c2)OCO3)C1 | -11% | 1.47 |
| CC(C)CS(=O)(=O)NCCc1ccsc1 | -15% | 2.52 |
| O=C(NC1CCOCC1)N(Cc1ccccc1)[C@H]1CCS(=O)(=O)C1 | -12% | 1.14 |
| O=C(NCCC1CCCCCC1)c1cc2n(n1)C[C@@H](O)CNC2=O | -9% | 1.24 |
| CN(Cc1sccc1Cl)C1(CO)CCOCC1 | 35% | -3.92 |
| O=C(NCc1cccc(F)c1)c1nc(-c2ccc3c(c2)OCO3)no1 | 1% | -0.18 |
| O=C1C2CCCCC2C(=O)N1CC(O)COc1c(Cl)cccc1Cl (centres undefined) | -9% | 0.88 |
| COc1cc(C(=O)NCCc2c[nH]c3ccccc23)on1 | 7% | -1.04 |
| Cc1cncc(C(=O)NC[C@H]2CN(CCc3ccccc3)C(=O)CO2)c1 | -7% | 0.87 |
| COc1ccc(CN2CC[C@H](c3nnc(-c4ccc(Cl)cc4)o3)C2)cc1 | 7% | -0.87 |
| O=C(Cc1cccc(F)c1)Nc1ccnn1[C@H]1CCS(=O)(=O)C1 | -5% | 0.92 |
| O=C(C1CCCN(C(=O)C2CC2c2ccccc2)C1)N1CCCC1 (centres undefined) | -3% | 0.47 |
| FC(F)(F)c1cnccc1NCCc1nc2c(s1)COCC2 | -16% | 2.43 |

| Compound | % Inhibition | Z score |
| --- | --- | --- |
| Cc1ccc2c(c1)[C@@](O)(CC(=O)c1ccc(C3CCCCC3)cc1)C(=O)N2 | -2% | 0.23 |
| O=C(N[C@H]1C[C@@H](c2ccncc2)O[C@@H](C2CCCCC2)C1)c1ccccc1 | -12% | 1.59 |
| COc1cc(C(=O)NCC(=O)NC(C)(C)C)cc(OC)c1OC | 5% | -0.86 |
| O=C1CC(c2ccc(NS(=O)(=O)N3CCCCC3)cc2)CC(=O)N1 | 1% | -0.16 |
| COc1ccc(CN2C(=O)N(Cc3ccccc3)c3ccccc3S2(=O)=O)cc1 | 1% | -0.09 |
| Cc1cc(C(=O)NC2CC(O)(C(F)(F)F)C2)ns1 (centres undefined) | 11% | -1.38 |
| CCN1C[C@H](CN(C)C(=O)NC2CCC(O)CC2)Oc2ccccc21 (some centres undefined) | 5% | -0.91 |
| Cc1ccc(C2(c3ccc(C)cc3)C(=O)Nc3ncccc32)cc1 | 3% | -0.37 |
| COc1ccccc1CN1C(=O)O[C@H]2CN(c3nc4ccccc4o3)C[C@H]21 | -3% | 0.45 |
| CCOc1cc(N2CCOCC2)c(OCC)cc1NC(=O)c1cc(C)c(C)s1 | -16% | 2.07 |
| O=C(c1ncc(F)cc1F)N1CCCC[C@@H]1CCc1ccccc1 | -14% | 1.94 |
| O=C(NC1CCCCC1)C(=O)N1CCCC1 | -11% | 1.38 |
| O=C(NCc1ccncc1)Nc1cc(-c2ccccc2)on1 | -8% | 1.26 |
| CN(C(=O)C1CC=CC1)C1CCN(C(=O)OC(C)(C)C)CC1 | -1% | 0.1 |
| C[C@@]12CN(Cc3ccccc3)C[C@@H]1CN(C(=O)COC1CCCC1)C2 | 6% | -0.85 |
| O=C(Nc1nnc[nH]1)[C@@H]1COc2ccccc2O1 | -12% | 1.1 |
| O=C(Nc1cccc2nonc12)c1ccco1 | -8% | 1.13 |
| N#Cc1c(NC(=O)CN2CCCCCC2)sc2c1CCCCC2 | -6% | 0.73 |
| O=C(c1cccc2ccccc12)N1C[C@@H]2CC[C@H]1CN(Cc1ccccn1)C2 | 15% | -1.89 |
